This is a selection; strong and weak results do not stand in their true shares. The list includes weakly bound sequences.

The assay deals with T1, GST-Ap-NF-kB RHD (UniProt A0A913YAJ5).
T1 sequence: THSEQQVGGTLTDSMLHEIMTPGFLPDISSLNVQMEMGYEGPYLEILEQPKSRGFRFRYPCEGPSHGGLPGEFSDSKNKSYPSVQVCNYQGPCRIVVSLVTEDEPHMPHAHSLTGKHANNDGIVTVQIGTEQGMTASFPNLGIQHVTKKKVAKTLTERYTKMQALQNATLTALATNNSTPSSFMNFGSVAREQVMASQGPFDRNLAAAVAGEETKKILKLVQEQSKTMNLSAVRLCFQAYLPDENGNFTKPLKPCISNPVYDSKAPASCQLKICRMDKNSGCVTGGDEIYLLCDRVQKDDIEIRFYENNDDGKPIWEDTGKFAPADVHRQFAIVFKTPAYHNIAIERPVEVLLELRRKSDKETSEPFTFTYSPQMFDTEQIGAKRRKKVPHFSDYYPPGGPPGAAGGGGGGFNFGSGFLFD
Put plainly: protein-binding microarray (PBM). The note with it: PBM: ~300 nM protein, 6 mM HEPES pH 7.8, 80 mM KCl, 0.5 mM EDTA, 0.5 mM EGTA, 6% glycerol, 35 ng/ul poly-dIdC, 1% milk, 1 h, room temperature; Ap Aiptasia and Nv Nematostella (sea anemones) / Co Capsaspora / Aq Amphimedon (sponge) / Dm Drosophila / Hu human; RHD is the Rel homology domain; high values mean tight binding; most listed sequences are background and not binding sites; double strand, one strand shown.
In turn, “CCGATTAACATCAGGGGGTTGACTGATGTTAATCGGGTCTTGATTCGCTTGACGCTGCTG” yielded a binding signal of 4.64 z-score.

Sequence “CCGATTAACATCAAAAATCCCACTGATGTTAATCGGGTCTTGATTCGCTTGACGCTGCTG” registered a binding signal of 3.51 z-score. Under “CCGATTAACATCAGGCGATCCCCTGATGTTAATCGGGTCTTGATTCGCTTGACGCTGCTG” stands 5.05 z-score; under “CCGATTAACATCATAAATTCCCATGATGTTAATCGGGTCTTGATTCGCTTGACGCTGCTG”, 2.62 z-score. With “CCGATTAACATCATATTGGGAAATGATGTTAATCGGGTCTTGATTCGCTTGACGCTGCTG”, the binding signal worked out at 0.328 z-score. Under “CCGATTAACATCATTGGGAAAAATGATGTTAATCGGGTCTTGATTCGCTTGACGCTGCTG” stands 0.96 z-score. For the sequence “CCGATTAACATCAATTTGGGAAATGATGTTAATCGGGTCTTGATTCGCTTGACGCTGCTG”, the binding signal is 0.389 z-score. For “CCGATTAACATCAAACTTTTCCCTGATGTTAATCGGGTCTTGATTCGCTTGACGCTGCTG” the value was 3.37 z-score; for “CCGATTAACATCAGGGAAAACACTGATGTTAATCGGGTCTTGATTCGCTTGACGCTGCTG”, 3.49 z-score; for “CCGATTAACATCAAAGGGAATAGTGATGTTAATCGGGTCTTGATTCGCTTGACGCTGCTG”, 2.26 z-score. For “CCGATTAACATCACAAAATTCCCTGATGTTAATCGGGTCTTGATTCGCTTGACGCTGCTG” the value was 5.93 z-score; for “CCGATTAACATCATTCCGGGAAATGATGTTAATCGGGTCTTGATTCGCTTGACGCTGCTG”, 0.945 z-score; for “CCGATTAACATCAGGGAACTTTATGATGTTAATCGGGTCTTGATTCGCTTGACGCTGCTG”, 4.27 z-score. For “CCGATTAACATCAAAGCACCCCCTGATGTTAATCGGGTCTTGATTCGCTTGACGCTGCTG” the value was 4.9 z-score.
